48 compounds from PubChem BioAssay AID1159614 (National Center for Advancing Translational Sciences (NCATS), 2016) can be followed below.

Structures are written as SMILES. The campaign covered roughly 45,000 compounds. About 65 (0.1%) were called active. Calls come from the whole dose curve; as a rule, active = well fitted activation curve with a large enough effect; inconclusive = small, poorly fitted or top-dose-only effect; inactive = no such curve, though single readings can be large or run the other way. Some of the results follow.

The test deals with Galactocerebrosidase (Homo sapiens) (UniProt P54803). The experiment in a line: A Novel Cell-Based Assay to Identify Small Molecules for B -Galactocerebrosidase. Note: 0% is about no effect; nearly all actives have a fitted effect of over 65% in size. As to conditions: 145M-Twi-hGALC-G270D cells (Twitcher mouse brain line with human GALC G270D), HMU-beta-Gal fluorescence, 48 h; series mostly up to 57.5 µM; activation: at the top concentration. A digest of the protocol: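 Mutant human GALC (G270D), stably expressed in a Twitcher mouse brain cell line lacking endogenous GALC, is measured in live-treated cells via 6-hexadecanoylamino-4-methylumbelliferyl-β-galactoside hydrolysis (0.1 mM final, pH 5.2) with fluorescent detection.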
Sequence of UniProt P54803 (P54803 whole entry, looked up): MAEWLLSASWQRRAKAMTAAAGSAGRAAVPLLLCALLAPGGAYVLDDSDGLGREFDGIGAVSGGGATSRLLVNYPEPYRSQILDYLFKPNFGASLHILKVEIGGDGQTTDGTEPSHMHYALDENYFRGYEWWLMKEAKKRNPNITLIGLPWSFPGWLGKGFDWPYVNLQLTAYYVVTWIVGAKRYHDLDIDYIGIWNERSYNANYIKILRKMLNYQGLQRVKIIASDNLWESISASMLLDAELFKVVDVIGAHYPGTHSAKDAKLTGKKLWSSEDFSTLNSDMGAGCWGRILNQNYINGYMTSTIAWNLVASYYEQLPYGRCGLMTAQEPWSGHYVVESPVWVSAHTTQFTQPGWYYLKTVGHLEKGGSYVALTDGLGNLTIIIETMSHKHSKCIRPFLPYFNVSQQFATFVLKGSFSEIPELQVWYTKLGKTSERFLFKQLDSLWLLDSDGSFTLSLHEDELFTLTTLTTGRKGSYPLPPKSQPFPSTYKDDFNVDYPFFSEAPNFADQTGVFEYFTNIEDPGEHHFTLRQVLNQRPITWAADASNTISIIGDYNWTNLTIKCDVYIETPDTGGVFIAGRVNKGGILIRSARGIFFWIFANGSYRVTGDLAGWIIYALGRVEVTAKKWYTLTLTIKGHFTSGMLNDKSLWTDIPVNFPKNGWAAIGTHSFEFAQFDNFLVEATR
On to `CCN(Cc1ccccc1)C(=O)CN1C(=O)CSc2ccc(S(=O)(=O)N(CC)CC)cc21`, for which the “activation” value is inactive: -10.6%. For `COc1ccccc1C(=O)N1c2ccccc2C(C)(c2ccc(Cl)cc2)CC1(C)C` (stereo not drawn) the value was inactive: -26.2%; for `COc1cc(C(=O)OCCCN2CCCN(CCCOC(=O)c3cc(OC)c(OC)c(OC)c3)CC2)cc(OC)c1OC`, inactive: -11.5%; for `COC(=O)CSc1nc2sc3c(c2c(=O)n1Cc1ccccc1)CCC(C(C)(C)C)C3` (stereo not drawn), inactive: -5.44%. To `COc1ccc(-c2nn(CC(=O)NCc3ccccc3)c3c2cnc2ccc(F)cc23)cc1` belongs inactive: -17.8%. As for `CCOc1ccccc1NC(=O)CN1C(=O)COc2ccc(S(=O)(=O)Nc3ccccc3)cc21`, the “activation” value is inactive: -2.57%.

Consider `Cc1ccc(NC(=O)C2CCCN(S(=O)(=O)c3ccc4[nH]c(=O)ccc4c3)C2)cc1C` (stereo not drawn), for which the “activation” value is inactive: -10.4%. For `O=C(NCc1cccs1)c1nn(-c2ccccc2F)nc1CO` the value was inactive: -13%.

For `CCCCNC(=O)Cn1ncc2c(C)n(Cc3cccc(Cl)c3)c(C)c2c1=O`, the “activation” value is inactive: -12.1%. To `CCCCN(C)CCCNC(=O)CN1C(=O)CSc2ccc(S(=O)(=O)N3CCOCC3)cc21` belongs inactive: -15.6%; to `Cc1ccc(-c2nc3nc(C)cc(N4CCN(c5cccc(C)c5)C(C)C4)n3n2)cc1` (stereo not drawn), inactive: -19.7%. To `O=C(Cn1c(=O)nc(-c2ccccc2F)c2cc(Cl)ccc21)Nc1ccccc1C(F)(F)F` belongs inactive: -14.8%; to `Cc1ccccc1CN1c2ccccc2-c2nc(SCC(=O)Nc3cc(F)ccc3F)ncc2S1(=O)=O`, inactive: -6.41%. Take `Cc1cc(C)c(NC(=O)CN2C(=O)CCn3nc(-c4cccn4C)cc32)c(C)c1`: the “activation” value is inactive: -8.1%.

Take `Cc1ccc(-n2ncc(C(=O)NCCCN3CCN(C)CC3)c2C2CCN(C(=O)OC(C)(C)C)CC2)cc1`: the “activation” value was inactive: -7.15%. To `Cc1ccc(Cl)cc1NC(=O)c1cc(-c2ccc3c(c2)OCCO3)on1` belongs inactive: -4.53%; to `O=C(Cc1ccc(NC(=O)N2CCCCc3ccccc32)cc1)Nc1ccccc1Br`, inactive: 3.7%.

For `Cc1cccc(NC(=O)CN(C)S(=O)(=O)c2cnc[nH]2)c1C`, the “activation” value is inactive: -10.5%.

Turning to `Cc1cc(C)c(NC(=O)CSc2cn(CC(=O)N3CCOCC3)c3ccccc23)c(C)c1`, the “activation” value is inactive: 5.53%. For `CCCCC(=O)N1CCN(c2nc3c(C)c(C)ccc3s2)CC1` the value was inactive: -22.3%; for `CCCCNc1cc(N2CCN(C3CCCCC3)CC2)c2noc3c2c1C(=O)c1ccccc1-3`, inactive: -14.8%; for `CCc1ccc2c(c1)c(=O)c(C(=O)c1ccccc1)cn2CC(=O)Nc1ccc(C)c(Cl)c1`, inactive: -13.1%.

With `CCc1ccc2c(c1)c(=O)c(C(=O)c1ccc(C)cc1)cn2CC(=O)Nc1ccccc1C`, the “activation” value is inactive: -5.35%.

For the compound `Cc1cc(C)c2c(n1)SCC(=O)N2CC(=O)Nc1cccc(C)c1C`, the “activation” value is inactive: 0.0227%. For `Cc1oc2ncn(CC(C)C)c(=O)c2c1C(=O)NCCCN1CCCCC1C` (stereo not drawn) the value was inactive: -5.52%; for `COc1cccc(Cn2c(=O)n(CC3CCC(C(=O)N4CCOCC4)CC3)c(=O)c3sccc32)c1` (stereo not drawn), inactive: -12.1%. For `CCc1ccc(Cn2c(CNS(=O)(=O)c3ccc4c(c3)CCCC4)nc3cccnc32)cc1` the value was inactive: -1.34%. For `CCOc1ccc(NC(=O)c2oc3ccccc3c2NC(=O)Cc2cccs2)cc1` the value was inactive: -7.93%. With `CCN1CCN(C(=O)c2ccc3c(c2)N(Cc2ccc(Cl)cc2)C(=O)c2ccccc2S3=O)CC1` (stereo not drawn), the “activation” value was inactive: -0.922%. To `Cc1ccc(NC(=O)CSc2nc3nccnc3c(=O)n2CCc2c[nH]c3ccccc23)c(C)c1` belongs inactive: -10.8%; to `COc1ccc(-c2c(C)nn3c(-c4ccccc4)cc(-c4ccccc4)nc23)cc1`, inactive: -2.59%. For `CCc1ccccc1NC(=O)c1ncoc1-c1ccco1` the value was inactive: -19.4%; for `COc1ccc(-c2nnc(SCC(=O)NCCc3ccccc3)nc2-c2ccc(OC)cc2)cc1`, inactive: -3.59%.

For `Cc1cccc(C)c1OCC(=O)Nc1c(C(=O)c2ccccc2)oc2ccccc12`, the “activation” value is inactive: -1.39%. For `O=C1CSC2(C(=O)N(Cc3c(F)cccc3Cl)c3ccccc32)N1c1ccc(F)c(F)c1` (stereo not drawn) the value was inactive: -23.3%; for `O=C(CSc1ncc2c(n1)-c1cc(Cl)ccc1N(Cc1ccccc1)S2(=O)=O)NCc1ccccc1`, inactive: -6.26%. For `Cc1ccc(OCCSc2nc3ccccc3n2CC(=O)NC(C)C)cc1` the value was inactive: -17.2%; for `CCOc1ccc(NC(=O)c2ncn(-c3ccccc3)n2)cc1`, inactive: -9.81%. For `Cc1ccc(-c2nnn3c2nc(N2CCC(C)CC2)c2ccccc23)cc1` the value was inactive: -3.09%; for `CCCCOC(=O)c1ccc(NC(=O)c2cc(=O)c3ccccc3o2)cc1`, inactive: -16.3%.

For the compound `CC(C)C[C@@H](N)C(=O)O`, the “activation” value is inactive: -6.39% [at 23.8 µM].

On to `Cc1ccc(C)c(N2CCN(C(=O)c3cccn4c(=O)c5ccccc5nc34)CC2)c1`, for which the “activation” value is inactive: -25.9%. As for `Cc1cc(SCC(=O)Nc2ccc(C(F)(F)F)cc2)nc(=O)[nH]1`, the “activation” value was inactive: -2.8%. For `O=C(Nc1ccc(OC(F)(F)F)cc1)C(NS(=O)(=O)c1cccc2nsnc12)c1ccccc1` (stereo not drawn) the value was inactive: -9.27%. To `CCc1ccc(C(=O)c2cn(CC(=O)Nc3ccc(OC)cc3)c3cc4c(cc3c2=O)OCCO4)cc1` belongs inactive: -2.95%.

As to `O=C(O)CCCn1cc(NC(=O)COc2ccccc2F)cn1`, the “activation” value is inactive: -18%. To `COc1ccc(C(=O)Nc2ccc3nc(N4CCCCC4)cc(C)c3c2)cc1OC` belongs inactive: -16.5%; to `COc1ccc(CCNC(=O)c2ccc(CSCc3ccc(C)cc3)o2)cc1OC`, inactive: -18.4%.
